According to article PMC6919601, “Identification of Plasmodium dipeptidyl aminopeptidase allosteric inhibitors by high throughput screening” (PLoS ONE, 2019):
Screen size: about 110,000 compounds; about 230 (0.21%) showed an effect of 50% or more. The list shows a part of the results.

molecular target: DPAP1 (Plasmodium falciparum, UniProt Q8IIJ9); assay: primary screen, percent inhibition; read by cleavage of a fluorogenic dipeptide substrate; higher = more effect of the substance; parameters: species or system P. falciparum D10 trophozoite lysates; single well
Sequence (Q8IIJ9 whole entry, looked up): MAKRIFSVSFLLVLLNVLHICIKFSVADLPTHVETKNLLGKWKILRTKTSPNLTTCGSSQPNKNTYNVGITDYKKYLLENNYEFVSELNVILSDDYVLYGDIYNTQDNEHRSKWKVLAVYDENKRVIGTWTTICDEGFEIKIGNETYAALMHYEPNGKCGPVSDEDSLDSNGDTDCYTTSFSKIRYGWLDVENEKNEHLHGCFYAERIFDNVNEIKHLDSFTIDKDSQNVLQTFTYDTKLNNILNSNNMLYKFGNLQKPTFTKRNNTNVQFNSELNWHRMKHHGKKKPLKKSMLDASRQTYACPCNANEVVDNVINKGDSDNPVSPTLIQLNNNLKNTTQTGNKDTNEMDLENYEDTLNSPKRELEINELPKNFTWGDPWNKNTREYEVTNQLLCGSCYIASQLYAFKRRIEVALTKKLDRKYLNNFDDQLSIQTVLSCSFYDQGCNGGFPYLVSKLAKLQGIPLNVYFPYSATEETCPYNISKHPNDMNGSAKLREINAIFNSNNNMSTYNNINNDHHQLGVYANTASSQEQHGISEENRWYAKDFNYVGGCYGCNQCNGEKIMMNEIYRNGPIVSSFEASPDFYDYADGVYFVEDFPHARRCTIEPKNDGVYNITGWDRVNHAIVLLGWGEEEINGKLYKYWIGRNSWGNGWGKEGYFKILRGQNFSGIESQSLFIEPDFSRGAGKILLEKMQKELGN
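Note: 30 min substrate incubation versus DMSO and 10 µM JCP410 controls.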

Structure (SMILES) | % Inhibition @ 10 uM
CCOc1ccc2nc(/N=C/c3nc(-c4ccccc4)oc3O)sc2c1 | -2.27%
CCCOc1ccc(Cc2nn3c(=O)/c(=C\C4=Cc5ccccc5OC4)sc3nc2=O)cc1 | 2.9%
Cc1ccc(C2C(C#N)=C(N)OC3=C2C(=O)CC(C)(C)C3)cc1 (centres unmarked) | -4.35%
CCN(CC)CCCNC(=O)c1ccccc1F | 0.795%
COc1ccccc1C(=O)N/C(=C/c1ccc2c(c1)OCO2)C(=O)Nc1ccc(C(=O)O)cc1 | 4.01%
COc1ccc(-c2nc(Cn3c(SCc4cccc(OC)c4)nc4ccncc43)c(C)o2)cc1 | -4.38%
CCC(C(=O)Nc1nnc(S(=O)(=O)N(C)Cc2ccccc2)s1)c1ccccc1 (centres unmarked) | 1.36%
OC(CN1CCOCC1)CN(c1ccccc1)c1ccccc1 (centres unmarked) | -0.239%
Cc1ccc(Oc2nc3c(C)cccn3c(=O)c2/C=C(\C#N)C(=O)NCCCOC(C)C)cc1 | -1.43%
Cc1ccc(O)c(NC(=O)c2ccc(Cl)cc2Cl)c1 | 1.92%
COc1cc(C2c3c(C)n[nH]c3C(=O)N2C)ccc1O (centres unmarked) | 2.29%
CCN(Cc1ccccc1)C(=O)c1ccc(Cl)cc1 | 1.87%
Cc1c(-c2ccccc2)nc2sc3c(c2c1N)CCCC3 | 1.27%
CCCc1[nH]nc2c1C(c1ccc(Cl)c(Cl)c1)C(C#N)=C(N)O2 (centres unmarked) | -2.24%
CCOc1ccc(C(=O)Nc2nnc(S(=O)(=O)N(C)Cc3ccco3)s2)cc1 | 5.8%
CCc1ccc(C2=NN(CCC(=O)N3CCC4(CC3)OCCO4)C(=O)CC2)cc1 | -0.971%
O=C1CSC(c2ccccc2F)N1Cc1ccccc1 (centres unmarked) | 1.52%
CCOc1cc(C)c(/C=C2\SC(=O)N(CC(=O)N3CCOCC3)C2=O)cc1C(C)C | 1.52%
CC(=O)N1CCN(c2ccc(NCc3c(Cl)cccc3Cl)cc2)CC1 | 2.44%
CCC1CCCCN1C(=O)Cn1nc(C)n2c(cc3cc(C)ccc32)c1=O (centres unmarked) | -2%
O=S(=O)(c1ccc2nc(O)ccc2c1)N(CCc1ccccc1)Cc1ccccc1 | 6.38%
CCCc1ncc(C(O)(c2ccccc2)c2ccccc2)n1C | -1.54%
CCCOc1ccccc1C(=O)N[C@@H](CC(C)C)C(=O)NCC#N | 12.3%
Fc1ccc(CN2CCN(c3ccc(Cl)cc3)CC2)cc1F | -3.77%
COCCCNC(=O)CCCc1cn(C)c2ccccc12 | 0.0845%

Structure (SMILES) | % Inhibition @ 10 uM
Cc1ccc(/C=C2/SC(=O)N(CC(=O)Nc3ccccc3C)C2=O)s1 | 2.22%
CCOC(=O)C1=C(CN2CCN(C)CC2)NC(=O)NC1c1ccc(OC(C)C)cc1 (centres unmarked) | 0.708%
CC12CCC3c4ccc(O)c(Br)c4CCC3C1CCC2=O (centres unmarked) | -2.15%
O=C(Nc1cccc(-c2cn3ccsc3n2)c1)c1ccc(Cl)cc1 | -4.03%
CCN(CC)c1ccc(NC(=O)C2CC[C@](C)(C(=O)O)C2(C)C)cc1 (some centres unmarked) | 3.53%
Cc1c(O)nc(-c2ccccc2)nc1-c1ccccc1 | 1.15%
O=C(Cn1ncn2c(cc3sccc32)c1=O)NCc1ccccc1Cl | -7.1%
CC1CCCCN1c1ncnc2ccccc12 (centres unmarked) | -2.47%
CCN1CCN(CC(=O)Nc2sc3c(c2C#N)CCCC3)CC1 | 38%
O=C(CCCc1c[nH]c2ccccc12)NC1=NCCS1 | 0.238%
Cc1c(Cl)cccc1-n1nnc(-c2nc(-c3ccncc3)no2)c1N | 3.98%
CC(C)Nc1ncnc2c1c(-c1ccccc1)cn2-c1ccccc1 | 5.23%
CCOc1ccc(Sc2cc(C(=O)NCc3ccco3)c3ccccc3n2)cc1 | -0.0542%
Cc1ccccc1NS(=O)(=O)c1cc(C(=O)O)cc(C)c1C | -7%
CCCCOc1ccc(C(=O)Nc2cccc(C(=O)O)c2)cc1 | 0.035%
Cc1ccc(CN2CCc3c([nH]c4ccccc34)C2)o1 | -3.27%
CC(NC(=O)Nc1cccc(Cl)c1)c1ccccc1 (centres unmarked) | -3.56%
N#Cc1cccc(NC(=O)c2ccc(-c3ccccc3)cc2)c1 | -0.771%
CCOCCCNCc1ccc(OC)cc1 | -4.97%
Clc1ccc(C2=CSC3=NCCN23)cc1Cl | 3.06%
CC[C@H](NC(=O)[C@H](CCC(=O)Nc1ccccc1)NC(=O)c1ccc(Br)cc1)C(=O)c1nc2ccccc2o1 | 0.173%
CCCC(=O)N1CCC(c2ccc(OC)cc2)=N1 | 2.25%
COc1ccc(OC)c2nc(O)c(CCNS(=O)(=O)c3c(C)cc(C)cc3C)cc12 | -0.396%
CCc1ccc(CN(C(=O)c2ccco2)C2CCS(=O)(=O)C2)cc1 (centres unmarked) | -4.62%
NC(=O)CCC1S(=O)(=O)CC(c2ccccc2)CS1(=O)=O (centres unmarked) | -2.55%
